In the RNAGym collection of RNA variant scans (doi:10.1093/nar/gkz1192):
The source gives no read counts; variants with many changes may rest on few reads.

B1: CPEB3 Ribozyme (parent)
chain: UAACAGGGGGCCACAGCAGAAGCGUUCACGUCGCAGCCCCUGUCAGAUUCUGGUGAAUCUGCGAAUUCUGCUGUAUAUCUC

Variants of: B1
Test: self-cleavage, relative activity (ratio to wild type); higher = more cleavage; in vitro, sequencing
Summary of the method: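 After error-prone PCR and barcoding, CPEB3 ribozyme mutant libraries were transcribed with T7 RNA polymerase at 37°C for 5 hours, then given 15 min with DNase I before an EDTA stop, and they cleaved during both steps. Reverse transcription with template switching preceded Illumina sequencing. Relative activity divides a variant's cleaved/total read fraction by the unmutated ribozyme's. At least 5 reads were required per variant, and three batches were averaged.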

Variant | self-cleavage
A28U A56U U58A U60C | 0.11
A28U A56U U58A U67A U80C | 0.1
A28U A56U U80C | 0.8
A28U A64U G73A | 0.45
A28U C29U A77G | 0.2
A28U C29U C38U U72A U76C | 0.09
A28U C29U U31C A56G A57U | 0.1
A28U C29U U66C U69C | 0.07
A28U C34U U41A U54A U76C | 0.11
A28U C38G U43G U54C A57U | 0.05
A28U C38U A47G A56G | 0.29
A28U C38U C81A | 1.03
A28U C39G U49C | 0.16
A28U C40G A64G U69C | 0.13
A28U C40U A65G | 0.46
A28U C40U U49A | 0.1
A28U C68U U74C | 1.02
A28U G30U U41A A56G | 0.07
A28U G33A U51A A64G U72C | 0.07
A28U G33A U51C | 0.53
A28U G33C A47U | 0.1

Variant | self-cleavage
A28U G33C A64G C68U | 0.1
A28U G63A U66A U69A | 0.22
A28U U31A A45G U48C U69C | 0.1
A28U U31A A57G | 0.35
A28U U31A A65U U66C | 0.18
A28U U31C A35U | 0.24
A28U U31C A45G U67C | 0.11
A28U U31C A57G U67C | 0.14
A28U U31C C44U U51A U76C | 0.09
A28U U31C U54C A64U U69C U72G | 0.09
A28U U31G A64G | 0.18
A28U U43A U66C | 0.41
A28U U43A U67A U69A U72A U80C | 0.21
A28U U43C A45U U49A U51C A65G U66A | 0.05
A28U U43C A47G U51A A57G U72A | 0.2
A28U U43C A57G A65G | 0.12
A28U U43C A75G | 0.56
A28U U43C U69A | 0.17
A28U U48C U67C | 0.17
A28U U49C G53A U80C | 0.44
A28U U49C U51A | 0.39

Variant | self-cleavage
A28U U49C U51C G73A U76C | 0.63
A28U U49C U76A | 0.24
A28U U51A G52U U67A U76C | 0.47
A28U U51A U58A | 0.19
A28U U51G U80C | 1.07
A28U U54A A57U A64G | 0.3
A28U U54C U72G | 0.78
A28U U54C U80C | 0.85
A28U U58C A77U | 0.36
A28U U58C U67A | 0.19
A28U U60C A65G U69A U76A A77U | 0.15
A28U U60C A75G | 0.24
A28U U60C U80C | 0.38
A28U U66C U72C | 0.26
A28U U67C U74A | 0.15
A28U U69A U72A | 0.2
C29A A35G C37U | 1.1
C29A A35G U51C U80A | 1.2
C29A A35G U67A U69A | 0.28
C29A A35U U43C | 0.13
C29A G52A U58A A64C U76C U78A | 0.03

Variant | self-cleavage
C29A U31C C40U G52U U69A | 0.17
C29A U31C U51C U54C A56G U72C U80C | 0.08
C29A U31C U80G | 0.23
C29A U41G A57G U60C | 0.11
C29A U43C U72C C79A | 0.42
C29A U51C A56U A57U | 0.09
C29A U51C U54C A75U | 0.41
C29G A45G A56G U78C | 0.03
C29G A45G U60C | 0.25
C29G C39A U54C U72C | 0.09
C29G U31C U43A | 0.17
C29G U41A U60C A75G | 0.07
C29G U41C A57U | 0.21
C29G U51A G61A U72C | 0.08
C29G U72A U78C | 0.08
C29U A35G U51C U66A | 0.47
C29U A45G U60A | 0.22
C29U A45U U58C | 0.34
C29U A47G G63C | 0.35
C29U A47G U58C U80A | 0.56
